Changes are numbered by the printed parent chain; changes in the protein carry UniProt numbers. The list shows a part of the results.
B1: GGUCAUA (DNA:RNA)
RNA: GGGAGACCGGAAUUCAGAUUGUCCGGUCAUAUUAAAUCCCGUCGUAGCCACCA
DNA 1: CAATCTGAATTCCGGTCTCCC
DNA 2: TGGTGGCTACGACGGGATT
B2: GGUAUGC (DNA:RNA)
RNA: B1 RNA with C28A, A29U, U30G, A31C
DNA 1: CAATCTGAATTCCGGTCTCCC
DNA 2: TGGTGGCTACGACGGGATT
B3: UGAGGAU (DNA:RNA)
RNA: B1 RNA with G25U, U27A, C28G, A29G, U30A, A31U
DNA 1: CAATCTGAATTCCGGTCTCCC
DNA 2: TGGTGGCTACGACGGGATT
B4: ACGCAUU (DNA:RNA)
RNA: B1 RNA with G25A, G26C, U27G, A31U
DNA 1: CAATCTGAATTCCGGTCTCCC
DNA 2: TGGTGGCTACGACGGGATT
B5: UAGGGCG (DNA:RNA)
RNA: GGGAGACCGGAAUUCAGAUUGUCCUAGGGCGUUAAAUCCCGUCGUAGCCACCA
DNA 1: CAATCTGAATTCCGGTCTCCC
DNA 2: TGGTGGCTACGACGGGATT
B6: GUCCAGU (DNA:RNA)
RNA: B1 RNA with G26U, U27C, U30G, A31U
DNA 1: CAATCTGAATTCCGGTCTCCC
DNA 2: TGGTGGCTACGACGGGATT
B7: CUGAGUG (DNA:RNA)
RNA: B5 RNA with U25C, A26U, G28A, C30U
DNA 1: CAATCTGAATTCCGGTCTCCC
DNA 2: TGGTGGCTACGACGGGATT
B8: AUAGCCC (DNA:RNA)
RNA: B5 RNA with U25A, A26U, G27A, G29C, G31C
DNA 1: CAATCTGAATTCCGGTCTCCC
DNA 2: TGGTGGCTACGACGGGATT
B9: UAAUUGA (DNA:RNA)
RNA: B5 RNA with G27A, G28U, G29U, C30G, G31A
DNA 1: CAATCTGAATTCCGGTCTCCC
DNA 2: TGGTGGCTACGACGGGATT
B10: UCUCUUU (DNA:RNA)
RNA: B1 RNA with G25U, G26C, A29U, A31U
DNA 1: CAATCTGAATTCCGGTCTCCC
DNA 2: TGGTGGCTACGACGGGATT
B11: AGAGUCG (DNA:RNA)
RNA: B5 RNA with U25A, A26G, G27A, G29U
DNA 1: CAATCTGAATTCCGGTCTCCC
DNA 2: TGGTGGCTACGACGGGATT
B12: UAUUGGG (DNA:RNA)
RNA: B5 RNA with G27U, G28U, C30G
DNA 1: CAATCTGAATTCCGGTCTCCC
DNA 2: TGGTGGCTACGACGGGATT
B13: UGAGAGA (DNA:RNA)
RNA: B1 RNA with G25U, U27A, C28G, U30G
DNA 1: CAATCTGAATTCCGGTCTCCC
DNA 2: TGGTGGCTACGACGGGATT
B14: AGGGCCU (DNA:RNA)
RNA: B5 RNA with U25A, A26G, G29C, G31U
DNA 1: CAATCTGAATTCCGGTCTCCC
DNA 2: TGGTGGCTACGACGGGATT
B15: UAGGUCG (DNA:RNA)
RNA: B5 RNA with G29U
DNA 1: CAATCTGAATTCCGGTCTCCC
DNA 2: TGGTGGCTACGACGGGATT
B16: AAUCUUC (DNA:RNA)
RNA: B1 RNA with G25A, G26A, A29U, A31C
DNA 1: CAATCTGAATTCCGGTCTCCC
DNA 2: TGGTGGCTACGACGGGATT
B17: AUCUCAA (DNA:RNA)
RNA: B1 RNA with G25A, G26U, U27C, C28U, A29C, U30A
DNA 1: CAATCTGAATTCCGGTCTCCC
DNA 2: TGGTGGCTACGACGGGATT
B18: AAUAAGA (DNA:RNA)
RNA: B1 RNA with G25A, G26A, C28A, U30G
DNA 1: CAATCTGAATTCCGGTCTCCC
DNA 2: TGGTGGCTACGACGGGATT
B19: UUGCUCA (DNA:RNA)
RNA: B5 RNA with A26U, G28C, G29U, G31A
DNA 1: CAATCTGAATTCCGGTCTCCC
DNA 2: TGGTGGCTACGACGGGATT
B20: CGUUAUU (DNA:RNA)
RNA: B1 RNA with G25C, C28U, A31U
DNA 1: CAATCTGAATTCCGGTCTCCC
DNA 2: TGGTGGCTACGACGGGATT
B21: UCAUCUU (DNA:RNA)
RNA: B1 RNA with G25U, G26C, U27A, C28U, A29C, A31U
DNA 1: CAATCTGAATTCCGGTCTCCC
DNA 2: TGGTGGCTACGACGGGATT
B22: CGUCUCU (DNA:RNA)
RNA: B1 RNA with G25C, A29U, U30C, A31U
DNA 1: CAATCTGAATTCCGGTCTCCC
DNA 2: TGGTGGCTACGACGGGATT
B23: GGGCAAU (DNA:RNA)
RNA: B1 RNA with U27G, U30A, A31U
DNA 1: CAATCTGAATTCCGGTCTCCC
DNA 2: TGGTGGCTACGACGGGATT
B24: CGAGGGA (DNA:RNA)
RNA: B1 RNA with G25C, U27A, C28G, A29G, U30G
DNA 1: CAATCTGAATTCCGGTCTCCC
DNA 2: TGGTGGCTACGACGGGATT
B25: CCGUGAA (DNA:RNA)
RNA: B5 RNA with U25C, A26C, G28U, C30A, G31A
DNA 1: CAATCTGAATTCCGGTCTCCC
DNA 2: TGGTGGCTACGACGGGATT
B26: UCCAUUA (DNA:RNA)
RNA: B1 RNA with G25U, G26C, U27C, C28A, A29U
DNA 1: CAATCTGAATTCCGGTCTCCC
DNA 2: TGGTGGCTACGACGGGATT
B27: AAGCGGU (DNA:RNA)
RNA: B5 RNA with U25A, G28C, C30G, G31U
DNA 1: CAATCTGAATTCCGGTCTCCC
DNA 2: TGGTGGCTACGACGGGATT
B28: AUGGGCC (DNA:RNA)
RNA: B5 RNA with U25A, A26U, G31C
DNA 1: CAATCTGAATTCCGGTCTCCC
DNA 2: TGGTGGCTACGACGGGATT
B29: CGUAGUA (DNA:RNA)
RNA: B1 RNA with G25C, C28A, A29G
DNA 1: CAATCTGAATTCCGGTCTCCC
DNA 2: TGGTGGCTACGACGGGATT
B30: UAGCGAA (DNA:RNA)
RNA: B5 RNA with G28C, C30A, G31A
DNA 1: CAATCTGAATTCCGGTCTCCC
DNA 2: TGGTGGCTACGACGGGATT
B31: AAUCAGA (DNA:RNA)
RNA: B1 RNA with G25A, G26A, U30G
DNA 1: CAATCTGAATTCCGGTCTCCC
DNA 2: TGGTGGCTACGACGGGATT

target: T1, RBFOX1 RRM (Homo sapiens, UniProt Q9NWB1 109-208); assay: EMSA; HiTS-Eq, 1 nM pool, 10 min; buffer printed only for the single-RNA assays: 10 mM Tris pH 7.5, 150 mM NaCl, 3.4 mM EDTA, 0.001% NP-40, 30 C; settings: tags: His6 N-terminal (pET28a); label: 5' 32P
T1 sequence: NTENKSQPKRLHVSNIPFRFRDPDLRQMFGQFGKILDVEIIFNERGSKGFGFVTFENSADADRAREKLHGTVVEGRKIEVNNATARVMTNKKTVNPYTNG
Summary of the method: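 Purified wild-type or mutant RbFox RRM at increasing concentrations was equilibrated with 1 nM of 5′-radiolabelled RNA carrying 7 randomized nucleotides for 10 min in 50 µL. Unbound RNA was separated by 8% native PAGE and sequenced. Relative association constants came from read-count changes of each RNA species compared with the control reaction, normalised to the cognate motif.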

First: B1
Second: B2
The binding signal of the first is lower: 0.00307 KA relative to UGCAUGU for the first, 0.0153 KA relative to UGCAUGU for the second.

Compared with B3, B4 is higher in binding signal: 0.00655 KA relative to UGCAUGU for the first, 0.0104 KA relative to UGCAUGU for the second.

Compared with B5, B6 is higher in binding signal: 0.00908 KA relative to UGCAUGU for the first, 0.0116 KA relative to UGCAUGU for the second.

First: B7
Second: B8
The binding signal of the first is higher: 0.0298 KA relative to UGCAUGU for the first, 0.00434 KA relative to UGCAUGU for the second.

Compared with B9, B10 is lower in binding signal: 0.0119 KA relative to UGCAUGU for the first, 0.00515 KA relative to UGCAUGU for the second.

First: B11
Second: B12
The binding signal of the first is higher: 0.0125 KA relative to UGCAUGU for the first, 0.00424 KA relative to UGCAUGU for the second.

First: B13
Second: B14
The binding signal of the first is lower: 0.0162 KA relative to UGCAUGU for the first, 0.0174 KA relative to UGCAUGU for the second.

First: B15
Second: B16
The binding signal of the first is higher: 0.0145 KA relative to UGCAUGU for the first, 0.00213 KA relative to UGCAUGU for the second.

Compared with B17, B18 is higher in binding signal: 0.000569 KA relative to UGCAUGU for the first, 0.00286 KA relative to UGCAUGU for the second.

First: B19
Second: B20
The binding signal of the first is higher: 0.0194 KA relative to UGCAUGU for the first, 0.00594 KA relative to UGCAUGU for the second.

Compared with B21, B22 is lower in binding signal: 0.0034 KA relative to UGCAUGU for the first, 0.00298 KA relative to UGCAUGU for the second.

First: B23
Second: B24
The binding signal of the first is higher: 0.0118 KA relative to UGCAUGU for the first, 0.00402 KA relative to UGCAUGU for the second.

Compared with B25, B26 is lower in binding signal: 0.0108 KA relative to UGCAUGU for the first, 0.003 KA relative to UGCAUGU for the second.

First: B27
Second: B28
The binding signal of the first is lower: 0.00838 KA relative to UGCAUGU for the first, 0.0157 KA relative to UGCAUGU for the second.

Compared with B29, B30 is higher in binding signal: 0.00483 KA relative to UGCAUGU for the first, 0.00919 KA relative to UGCAUGU for the second.

B31 was tested, and the binding signal was 0.00408 KA relative to UGCAUGU.

— article PMC9911399, “Two distinct binding modes provide the RNA-binding protein RbFox with extraordinary sequence specificity”
